Measured values reported in ChEMBL document CHEMBL4888484, “Replenishing the malaria drug discovery pipeline: Screening and hit evaluation of the MMV Hit Generation Library 1 (HGL1) against asexual blood stage Plasmodium falciparum ,using a nano luciferase reporter read-out” (2022).
The whole screen tested about 150,000 compounds, of which about 540 (0.36%) showed an effect of 50% or more. The list shows a part of the results.

tested on: Plasmodium falciparum; assay: Primary screen in NF54 nanoGlo assay, in single point, at 2uM, 72h; a lower Z score goes with more inhibition; assay type: functional, Erythrocyte; details: timepoint 72 hour

Compound | % Inhibition [%] | Z score
CCOC(=O)Cc1csc(NC(=O)N[C@H]2CC(=O)N(c3ccc4c(c3)OCCO4)C2)n1 | -7 | 1.19
CCN1CCC[C@@H]1CNC(=O)NC1CCCCC1 | 0 | 0.01
COc1cncc(C(NC(=O)c2cncc(Cl)c2)[C@H]2C[C@H](O)C2)c1 (stereo not given in full) | -2 | 0.26
CC1=C(CCN2CCN(CCn3cc(C(=O)NC(C)C)nn3)CC2)C(C)(C)CCC1 | 6 | -1.08
CN(c1ncc(Cl)cn1)[C@H]1CCc2ccccc21 | -7 | 0.86
Cc1cnc(NC(=O)c2ccccc2F)o1 | -3 | 0.26
CN(C)[C@H]1CN(c2nnc(-c3ccccc3)s2)C[C@@H]1O | -7 | 1.32
O=C(c1cnn(Cc2ccccc2)c1)N1C[C@@H]2[C@@H]3CC[C@@H](C3)[C@@H]2C1 | -10 | 1.78
O=C([C@@H]1CCCN1Cc1cncn1Cc1ccccc1)N1CCOCC1 | -3 | 0.7
Cc1cc2c(N[C@H]3C[C@H]4OCC[C@@H]34)ncnc2s1 | 6 | -0.73
CC1CCN(c2nc(-c3ccc(C(C)C)cc3)c3c(N)n(C)nc3n2)CC1 | -18 | 2.12
CCCc1nc(C)cc(N(C)CCn2ccnc2)n1 | -4 | 0.74
C[C@@H](C(=O)N(Cc1ccncc1)C1CC1)c1ccccc1 | 8 | -0.89
CCCn1ncc(NC(=O)Cn2ccc(-c3nccnc3C)n2)n1 | -16 | 1.66
COc1cc(C)nc(N2CCO[C@H](c3nccs3)C2)n1 | -4 | 0.45
COc1cccnc1-c1cccc(C(=O)N(CCO)Cc2nccn2C)c1 | -15 | 1.73
COc1cccc(CN2CCC[C@H](c3cc4n(n3)CCCNC4=O)C2)n1 | -12 | 2.2
CCNC(=O)Cn1ccc(Nc2ccc3nccnc3n2)n1 | 1 | -0.15
C[C@H](Nc1ccc(C(F)(F)F)cn1)c1ccncc1 | -14 | 1.95
CCNC(=O)[C@H](C)NC(=O)c1cc(C)ccc1O | -8 | 1.5
c1ccc(C(Cc2noc([C@H]3CCOC3)n2)c2ccccc2)cc1 | 5 | -0.92
Cc1ccc(Cn2ccc(NC(=O)c3noc4c3CCc3ccccc3-4)n2)cc1 | -16 | 1.77

Compound | % Inhibition [%] | Z score
Cn1nccc1CS(=O)(=O)Cc1csc(-c2ccoc2)n1 | 1 | -0.12
Cc1oc(CNC(=O)c2cccc(F)c2)nc1C(=O)N1CCCC1 | -11 | 1.48
C[C@@H](c1ccc(F)c(F)c1)N(C)C(=O)C1=NN(c2ccccc2)C(=O)CC1 | -8 | 1.06
CN(C(=O)c1ccco1)[C@@H](Cc1ccccc1Cl)C1CCN(Cc2ccccn2)CC1 | -17 | 2.18
O=C(c1ccc(F)cc1Cl)N1CC(N2C(=O)CCC2=O)C1 | 2 | -0.25
COCC(=O)Nc1cc(NC(=O)CCc2scnc2C)ccc1OC | -12 | 2.38
Cc1ccc(C)c(NC(=O)NCc2ccoc2)c1 | -11 | 1.08
OCCc1cnn(Cc2csc(C3CCCCC3)n2)c1 | -8 | 1.14
COc1cccc(-c2cn3c(n2)N(C(=O)Cn2ccnc2C)CCC3)c1 | -7 | 1.19
CCC1(O)CN(C(=O)[C@]2(C)CCCNC2=O)C1 | 0 | 0
C=CCn1cc(CN2CCC[C@@]3(CCN(C(=O)c4cccc(C#N)c4)C3)C2)cn1 | 3 | -0.31
COCCn1cnc2cc(NC(=O)C3CCCCC3)cc(C(=O)N(Cc3ccccc3)CC3CC3)c21 | -10 | 1.76
COC[C@@]12CN(C(C)=O)CC[C@@H]1CN(C(=O)Cc1ccsc1)C2 | -10 | 1.21
COc1cc(CN(C)Cc2ncccc2C)ccc1OC[C@@H](O)CN1CCOCC1 | -8 | 1.27
CC(C)c1ccc(O)c(C(=O)N2CCC(C(=O)NC3CC3)CC2)c1 | 2 | -0.19
COc1cccc(N2C(=O)c3cc(C)nn3C[C@@]2(C)C(=O)NCc2ccc(Cl)cc2)c1 | -8 | 1.22
N#Cc1nccnc1O[C@H]1CCCN(C(=O)NCc2ccc(Cl)cc2)C1 | -10 | 1.77
CN(Cc1ccc2c(c1)OCO2)C(=O)c1cn(C)nc1-c1cnn(C)c1 | -13 | 2.2
CCOc1ccccc1NCC(=O)NC(C1CC1)C1CC1 | 1 | -0.15
CCc1nc(C)c(C(=O)N2CC[C@@H]3OCc4cccc(c4)Oc4cccc(c4)CC(=O)N(CC)CC(=O)N[C@H]3C2)o1 | -3 | 0.42
Cc1cc(C)nc(CCNCc2c(C(=O)N(C)C)nc3ccc(Cl)cn23)n1 | -8 | 1.48
CCn1nccc1C(=O)N1CC[C@H](n2c(=O)n(C)c3cccnc32)C1 | -2 | 0.3

Compound | % Inhibition [%] | Z score
CC(C)Cc1n[nH]c(-c2cccc(-c3cn[nH]c3)c2)n1 | -15 | 2.6
Cc1cc(C)n2nc(C(=O)N3CCC(n4c(=O)[nH]c5ccc(F)cc5c4=O)CC3)nc2n1 | -7 | 1.27
COc1cc(NC(C)=O)c(Cl)cc1C(=O)Nc1nnc(CCCc2ccccc2)s1 | 9 | -1.16
Cc1cc(NC(=O)NC2CCCC2)n(C)n1 | -1 | 0.12
COCCCN(C)C(=O)Nc1c(C)cc(Br)cc1OC | 1 | -0.11
COc1ccc2c(c1)C(=O)N(Cc1ccccc1)C(=O)C2(C)C | -10 | 1.06
Cc1cc(N2CCN(C(=O)Nc3cccc4c3CCC4)CC2)nc(N)n1 | -3 | 0.38
CCc1nnc(NC(=O)COc2ccc3c(c2)OCO3)s1 | -11 | 1.99
CC1CC(C)CN(C(=O)NCCS(=O)(=O)C(C)(C)C)C1 (stereo not given) | -6 | 0.9
O=C(NCc1ccc2nsnc2c1)N1CCC(F)(F)CC1 | -12 | 2.24
Cc1ncc(CO)c(CN2CC[C@](C)(O)[C@H](CC(C)C)C2)c1O | 1 | -0.13
COc1cccc2c1CCc1c(C(=O)NCCc3ccncc3)n[nH]c1-2 | 4 | -0.55
c1ccc(OCCn2nnnc2N2CCCC2)cc1 | 4 | -0.76
C#CCNC(=O)c1ccc(Br)cc1C | 5 | -0.69
COc1cc2ccccc2cc1C(=O)N1CCc2ccccc2C1 | -7 | 1.03
CC(C)N1CC[C@H](CN(C)C(=O)c2csnc2N)C1 | -14 | 1.94
COc1cccc(-n2ccc3c(nnc4ncnn43)c2=O)c1 | -8 | 1.18
N[C@H]1CCN(C(=O)c2csc3ccccc23)C1 | -2 | 0.45
CN(C)C(=O)CN1CCC[C@H](CNC(=O)c2ccoc2)C1 | 5 | -0.66
CN(C)c1nccnc1NCCCc1nnc2ccccn12 | -6 | 1.2
C[C@@H](Cc1nc(CC(N)=O)nn1C(C)(C)C)N1CCOCC1 | -6 | 1.16
O=C(CCN1C(=O)CCC1=O)N1CCCN(c2nc3ccccc3[nH]2)CC1 | -2 | 0.24

Compound | % Inhibition [%] | Z score
Cc1c(C(=O)N(C)C2CCN(C)CC2)cnn1-c1nccc(-c2cc3ccccc3o2)n1 | -4 | 0.55
O=C(CC1CC(F)(F)C1)Nc1ccccn1 | 4 | -0.57
Cc1ccc(N(C)S(=O)(=O)c2ccccc2-c2nc(-c3ccccc3)no2)cc1C | -13 | 1.48
CC(C)NC(=O)N1CCN(c2nc(C3CCCCC3)nc3c2cnn3-c2ccccc2Cl)CC1 | -4 | 0.39
COc1ccc(NC(=O)N2CCC3(C=Cc4ccccc43)CC2)cn1 | -13 | 2.58
Cc1cccc([C@@H](NC(=O)CC2OCCCO2)C(F)(F)F)c1 | 3 | -0.38
COc1ccc(CN2CCN(C3CCC3)C[C@@H]2CCO)c(F)c1 | -14 | 1.26
CCCc1csc(NC(=O)N2CCOC3(CCC3)C2)n1 | 1 | -0.16
CN(C)C(=O)N(CCNS(=O)(=O)c1ccccc1)C1CCOCC1 | -4 | 0.71
O=C(NCc1ccc(Cl)s1)N[C@H]1CC[C@@H](CO)C1 | 1 | -0.26
N#Cc1cnc(NC2CCCCC2)nc1N | -13 | 1.54
Cc1ccc(C)c2sc(NC(=O)C(CC(C)C)N3C(=O)C4CC=CCC4C3=O)nc12 (stereo not given) | 18 | -2.27
COC(=O)COc1cc(-c2ccc(Cl)cc2)nc2ccc(NC(=O)Cc3ccccc3)cc12 | -9 | 1.57
COc1ccc2c(n1)N(C(=O)OC(C)(C)C)[C@H](C(=O)O)C2 | -4 | 0.67
Cc1ncsc1C(=O)N1CCN(C(=O)C2CCC2)[C@@H]2CS(=O)(=O)C[C@@H]21 | -18 | 1.98
CCc1c(C(=O)N[C@H]2Cc3cccnc3NC2=O)ccn1C | 10 | -1.13
O=C(CCn1nnc2ccccc21)NC[C@@H](c1ccc(F)cc1)N1CCCC1 | -1 | 0.17
Cc1n[nH]c(C2CC2)c1C(=O)NCc1csc(N)n1 | -13 | 2.35
Cc1ccc(S(=O)(=O)c2c(C)cc(-c3ccccc3)nc2N2CCOCC2)cc1 | 39 | -4.97
